Data from PubChem BioAssay AID1347073 (National Center for Advancing Translational Sciences (NCATS), 2019).
Screen size: about 45,000 compounds; about 200 (0.44%) were called active. About 7% were inconclusive and are not listed. The call rests on the fitted dose curve; in most records, active means well fitted activation curve with a large enough effect; inconclusive means small, poorly fitted or top-dose-only effect; inactive means no such curve, though single readings can be large or run the other way. Some of the results follow.

Experiment: qHTS of TDP-43 Inhibitors: NCGC Sytravon Library Screen; further: 0% is about no effect; nearly all actives have a fitted effect of over 55% in size
Conditions: yeast TDP-43 toxicity rescue, BacTiter-Glo growth, 24 h; series mostly up to 46.1 µM; growth rescue (activation): at the top concentration
How it was run: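 TDP-43-expressing yeast, pregrown in raffinose, seeded at OD600 0.02 in galactose medium with compound for 24 hr at 30 deg C. Growth read by BacTiter-Glo luminescence, so rescue of toxicity appears as activation.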

Row | Structure (SMILES) | growth rescue (activation)
1 | CN(C)c1ccc(C(CNS(=O)(=O)c2ccc(F)cc2)c2c[nH]c3ccccc23)cc1 (configuration not stated) | inactive: -2.19%
2 | COc1ccc(S(=O)(=O)N2CCC(C(=O)NCc3ccc(C)cc3)CC2)cc1 | inactive: 16.8%
3 | CCCn1c(SCC(=O)Nc2nnc(CC)s2)nnc1-c1ccncc1 | inactive: 3.6%
4 | COc1ccc(C)cc1NC(=O)C(OC(=O)CNC(=O)c1ccc(Br)cc1)c1ccccc1 (configuration not stated) | inactive: 22.5%
5 | O=C(O)CC1SC(N/N=C/c2ccc(Br)cc2)NC1=O (configuration not stated) | inactive: 6.4%
6 | COc1ccc(CN2CCN(Cc3cc(=O)oc4cc(C)ccc34)CC2)c(OC)c1OC | inactive: 4.97%
7 | CCn1c(-c2ccccn2)nc2cc(S(=O)(=O)N(C)C)ccc21 | inactive: 16.6%
8 | O=C(Nc1ccc(S(=O)(=O)Nc2ncccn2)cc1)c1cncc(Br)c1 | inactive: -18.6%
9 | COc1cccc(C(C)N(C)Cc2nc(-c3ccoc3)oc2C)c1 (configuration not stated) | inactive: -7.49%
10 | CN(C)C(CNC(=O)CNC(=O)c1ccc2ccccc2c1)c1ccccc1 (configuration not stated) | inactive: 3.45%
11 | O=C(Oc1cccc(N2C(=O)C3C4c5ccccc5C(c5ccccc54)C3C2=O)c1)c1ccco1 (configuration not stated) | inactive: 21.5%
12 | O=C(COC(=O)C1CC2C=CC1C2)Nc1cccc(S(=O)(=O)N2CCCCCC2)c1 (configuration not stated) | inactive: 17.5%
13 | COC(=O)c1c(NC(=O)c2cccnc2)sc(C(=O)N(C)C)c1C | inactive: -11%
14 | CC1=NN(c2cccc(Cl)c2)C(=O)C1 | inactive: -4.83%
15 | CSCCC(NC(=O)c1cc([N+](=O)[O-])ccc1Cl)C(=O)O (configuration not stated) | inactive: -0.513%
16 | Cc1cc(C)n(C(=O)c2ccc([N+](=O)[O-])cc2Cl)n1 | inactive: 13.3%
17 | CSc1ccc(S(=O)(=O)NCCCn2ccnc2)cc1 | inactive: -0.835%
18 | COc1ccc(CNC(=O)COC(=O)c2c(C)nn(-c3ccccc3)c2C)cc1OC | inactive: 30.6%
19 | CC(=O)C12CCCCC1CC1[C@@H]3CC(C)C4=CC(=O)CC[C@]4(C)C3CC[C@@]12C (some centres not stated) | inactive: -9.73%
20 | O=C(Nc1ccccc1C(=O)N/N=C/c1ccccc1)c1ccco1 | inactive: 11.8%
21 | O=C(C/C=N\OCc1ccc([N+](=O)[O-])cc1)Nc1ccc(Br)cc1 | inactive: 2.93%
22 | COc1cccc(C(C)(O)c2nc(-c3cccc(C(=O)O)c3)cs2)c1 (configuration not stated) | inactive: 5.03%
23 | Cc1csc(NC(=O)CS(=O)(=O)Cc2ccccc2)n1 | inactive: -18.1%
24 | CC(C)n1c(SCC(=O)N2CCCCC2)nc2c1c(=O)n(C)c(=O)n2C | inactive: 3.76%
25 | COc1ccc(NS(=O)(=O)c2cc(NC(=O)CCSc3ccccc3)ccc2OC)cc1 | inactive: 19.5%
26 | COc1ccc(-n2nc(C(=O)NCC(=O)NCCc3ccc(OC)c(OC)c3)c3ccccc3c2=O)cc1Cl | inactive: -7.59%

Row | Structure (SMILES) | growth rescue (activation)
27 | CCN(CC)CCCNC(=O)c1oc2ccc(S(=O)(=O)N3CC(C)CC(C)C3)cc2c1C (configuration not stated) | inactive: -2.57%
28 | O=S(=O)(NCC(c1cccnc1)N1CCN(c2ccccc2)CC1)c1cccs1 (configuration not stated) | inactive: 26.9%
29 | O=[N+]([O-])c1ccc(CN2CCN(c3ccc4ccccc4n3)CC2)cc1 | inactive: -3.61%
30 | Cc1ccc(N(C(=O)CC2NC(=O)NC2=O)C2(C(=O)NC3CCCC3)CCCCC2)cc1 (configuration not stated) | inactive: -4.7%
31 | CC1Cc2ccccc2N1Cc1cccc(S(=O)(=O)N(C)C)c1 (configuration not stated) | inactive: 21.1%
32 | O=C(CSc1ncccn1)NC(=O)NCc1ccco1 | inactive: 3.2%
33 | COc1ccc(S(=O)(=O)N(CC(=O)NC2CC2)Cc2ccccc2)cc1 | inactive: 16.8%
34 | COc1ccccc1NS(=O)(=O)c1cccc(C(=O)N/N=C/c2ccc(OCC(=O)O)cc2)c1 | inactive: 8.83%
35 | O=C(Cn1cc(C(F)(F)F)ccc1=O)Nc1ccc2c(c1)OCCO2 | inactive: -4.61%
36 | O=S(=O)(c1ccc(Br)cc1Cl)N1CCN(CCO)CC1 | inactive: 1.43%
37 | CCCCOC(=O)CSC1=C(C#N)C(c2cccnc2)C(C(=O)OCC)=C(c2ccccc2)N1 (configuration not stated) | inactive: 4.47%
38 | COc1ccc(N2C3=C(C(=O)CC(C)(C)C3)C(c3ccccc3OC)C3=C2CC(C)(C)CC3=O)cc1 | inactive: 8.03%
39 | COc1ccccc1NC(=O)CN(Cc1ccco1)C(=O)c1ccc(=O)[nH]c1 | inactive: -10.6%
40 | CCOc1cccc(C2C(C(=O)c3ccc(C)o3)=C(O)C(=O)N2c2nnc(C)s2)c1 (configuration not stated) | inactive: -4.2%
41 | CC1CC(C)CN(S(=O)(=O)N2CCC(C(=O)NCc3ccco3)CC2)C1 (configuration not stated) | inactive: -4.61%
42 | Cc1cc(Cl)ccc1NC(=O)Cn1cncn1 | inactive: 7.12%
43 | O=C(CCl)N1N=C(c2ccco2)CC1c1ccco1 (configuration not stated) | inactive: 1.37%
44 | COc1ccc(CN2C(=O)CC(C(=O)NCCc3ccc(S(N)(=O)=O)cc3)SC2=Nc2ccccc2)cc1 (configuration not stated) | inactive: 5.11%
45 | CCC(Sc1nncn2c1cc1oc(C)cc12)C(=O)Nc1ccc(F)cc1 (configuration not stated) | inactive: 24.4%
46 | NC(c1ccccc1)c1csc(NC(=O)Nc2cccc(Cl)c2)n1 (configuration not stated) | inactive: 22.6%
47 | O=C(Nc1ccccc1C(=O)Nc1ccccc1)c1cccs1 | inactive: 0.606%
48 | O=C(NCC(=O)N1CCCC1)c1ccccc1F | inactive: 2.55%
49 | COc1cccc(-c2csc(NC3OC(=O)c4c3ccc(OC)c4OC)n2)c1 (configuration not stated) | inactive: 3%
50 | Cc1ccc(C)c(-n2cc(-c3ccc(Cl)cc3)nc2SCC(=O)NC2CCS(=O)(=O)C2)c1 (configuration not stated) | inactive: 2.93%
51 | NS(=O)(=O)c1cccc(NC(=O)CN2CCN(S(=O)(=O)c3ccc4c(c3)OCCO4)CC2)c1 | inactive: 10.8%
52 | COc1cc(C(=O)OCC(=O)c2cc(C)n(CC3CCCO3)c2C)ccc1OCC(=O)N1CCOCC1 (configuration not stated) | inactive: 20.2%

Row | Structure (SMILES) | growth rescue (activation)
53 | Cc1ccc(-c2cc(NC(=O)c3ccccc3)on2)cc1 | inactive: -0.839%
54 | CCc1ccccc1NC(=S)N(Cc1ccc(C(=O)O)cc1)Cc1ccc(OC)c(OC)c1 | inactive: 4.02%
55 | O=C(CN1CCN(c2ccc(F)cc2)CC1)Nc1nccs1 | inactive: 10.1%
56 | COc1cc2cc(CN(Cc3cccs3)C(=S)Nc3ccc(C)cc3)c(=O)[nH]c2cc1OC | inactive: -4.45%
57 | CCCOc1ccc(NC(=O)CC2C(=O)N(C)C(=S)N2Cc2ccc3c(c2)OCO3)cc1 (configuration not stated) | inactive: 18.2%
58 | CC(O)C(NS(=O)(=O)c1ccc(Cl)cc1)C(=O)OCC(=O)c1c[nH]c2ccccc12 (configuration not stated) | inactive: -4.96%
59 | CCOC(=O)c1cc(-c2ccccc2)n(CC(=O)Nc2cc(OC)cc(OC)c2)c1C | inactive: 15.3%
60 | Cc1ccc(F)c(S(=O)(=O)NC(=O)C2(C)CCN2C(=O)c2cccc3ccccc23)c1 (configuration not stated) | inactive: -1.89%
61 | CCC(C)(C)NC(=O)/C=C/c1ccc(OC)c(S(=O)(=O)N2CCOCC2)c1 | inactive: 13.7%
62 | Cc1ccc2c(c1)sc(C)[n+]2CCCS(=O)(=O)[O-] | inactive: -2.2%
63 | CCOc1ccccc1N=C1SC(CC(=O)Nc2ccc(OC)cc2OC)C(=O)N1CCC1=CCCCC1 (configuration not stated) | inactive: -0.119%
64 | Fc1ccc(C2CCNCC2COc2ccc3c(c2)OCO3)cc1 (configuration not stated) | inactive: -3.08%
65 | COc1ccc(CN2C[C@@H](CO)O[C@@H](n3cnc4c(N5CCN(CCO)CC5)ncnc43)C2)cc1 | inactive: -5.43%
66 | Cc1ccc2cc(CN(C(=O)c3ccncc3)C(C)C)c(=O)[nH]c2c1 | inactive: 2.78%
67 | CCCC(=O)OCC(=O)Nc1cc([N+](=O)[O-])ccc1OC | inactive: 1.08%
68 | Cc1nn(CC(=O)NCc2cccnc2)c(C)c1[N+](=O)[O-] | inactive: -5.58%
69 | CCCCn1c(-c2ccc(OC(F)F)cc2)nc2c1c(=O)[nH]c(=O)n2CC(C)C | inactive: 8.08%
70 | O=[N+]([O-])c1cccc(/C=N/NS(=O)(=O)c2ccccc2)c1 | inactive: 0.297%
71 | CC(=O)Nc1ccc(-c2cc(N)n(-c3ccccc3)n2)cc1 | inactive: -1.44%
72 | O=[N+]([O-])c1ccc(-c2nc(=S)c3c(o2)CCCC3)cc1 | inactive: 19.2%
73 | CCC(C)(C)NC(=O)C(c1cccc(OC)c1OC)N(Cc1ccc(OC)cc1)C(=O)CCC(=O)Nc1cc(C)on1 (configuration not stated) | inactive: 12.1%
74 | Cc1ccc(S(=O)(=O)NC(=O)NCCCN2CCOCC2)cc1 | inactive: -13.7%
75 | CCCn1c(SCC(=O)c2ccc(CC)cc2)n[nH]c1=O | inactive: 14.2%
76 | CCn1c(=O)c(C(=O)NNC(=O)c2ccccc2Cl)c(O)c2ccccc21 | inactive: -58.8%
77 | CC(C)c1nc2sc3c(=O)n(N)cnc3c2c2c1COC(C)(C)C2 | inactive: 6.51%
78 | COc1ccc(C(=O)NC(=S)Nc2ccc3c4c(cccc24)CC3)cc1OC | inactive: -16.4%

Row | Structure (SMILES) | growth rescue (activation)
79 | CC1CCC(NC(=O)CC(NC(N)=O)c2ccccc2Cl)CC1 (configuration not stated) | inactive: -2.61%
80 | COc1cc(OC)c(S(=O)(=O)Nc2ccccc2N2CCOCC2)cc1NC(C)=O | inactive: 1.56%
81 | CC(=O)Nc1ccc(S(=O)(=O)N2CCNC(=O)C2)cc1 | inactive: 2.64%
82 | Cc1ccc(C)c(CN2C(=O)c3ccccc3S(=O)(=O)c3ccc(C(=O)N4CCCCC4)cc32)c1 | inactive: 15.1%
83 | CC(C)Cn1c(N)c(C(=O)COC(=O)CCc2nc3ccccc3s2)c(=O)n(C)c1=O | inactive: 18.9%
84 | Cc1ccc(S(=O)(=O)NCC(C)NC(=O)CN2CCOCC2)cc1 (configuration not stated) | inactive: 10.5%
85 | CCCn1c(SCC(=O)N2N=C3/C(=C/c4ccc(OC)cc4)CCCC3C2c2ccc(OC)cc2)n[nH]c1=O (configuration not stated) | inactive: 19.2%
86 | Cc1cccn2cc(-c3ccc(F)cc3)cc12 | inactive: 1.75%
87 | Cc1ccc2c(C)c(C(=O)Nc3c(C)n(C)n(-c4ccccc4)c3=O)oc2c1 | inactive: -5.29%
88 | COc1ccccc1C(=O)Nc1ccc2c(c1)CCCN2C(=O)c1cccs1 | inactive: 14.2%
89 | COc1cc(S(=O)(=O)Nc2ccc3c(c2)C(=O)N(C)C3=O)ccc1NC(C)=O | inactive: -8.14%
90 | COc1ccc(CNC(=O)C(C)Sc2ccc(C)cc2)cc1 (configuration not stated) | inactive: 29.7%
91 | CCc1ccc(OCC(=O)N/N=C(\C)c2ccc(O)cc2O)cc1 | inactive: 8.76%
92 | COc1cc(C2CC(=O)Oc3c2c(=O)n(C)c2ccccc32)cc(OC)c1OC (configuration not stated) | inactive: -9.37%
93 | COC(=O)c1ccc(-c2nc3ccccc3[nH]2)cc1 | inactive: -42.6%
94 | CC(=O)c1ccc(/C=C/c2nc3ccccc3n2C)o1 | inactive: -8.78%
95 | O=C1CCCCC1C(=O)c1ccccc1 (configuration not stated) | inactive: 7.64%
96 | Cc1ccccc1N(C(=O)Cc1c[nH]c2ccccc12)C(C(=O)NC1CCCCC1)c1ccco1 (configuration not stated) | inactive: 5.33%
97 | Cc1ccc(OCC(=O)Nc2ccc3oc(=O)ccc3c2)cc1 | inactive: 22.6%
98 | CCc1nc2c(OCc3ccc(Cl)cc3)cccn2c1N(C)C(=O)c1ccc2c(c1)OCO2 | inactive: 6.36%
99 | CC(=O)N(CCCN(C)C)Cc1ccccn1 | inactive: -2.04%
100 | O=C(NCc1cccs1)c1ccc2ccccc2n1 | inactive: 23%
101 | CCC(C)[C@H](NC(=O)NCCC1=CCCCC1)C(=O)OC (some centres not stated) | inactive: 4.18%
102 | CC(=O)c1cc2c(cc1N/C(=N/S(=O)(=O)c1ccc(Br)cc1)c1ccccc1)OCO2 | inactive: 12.3%
